# Results published in PubChem BioAssay AID686979 (National Center for Advancing Translational Sciences (NCATS), 2013).
# The campaign covered roughly 420,000 compounds. About 50,000 (12%) were called active. Inconclusive means that the source gave no clear call. Such entries were picked first, then a sample of the others. The call rests on the fitted dose curve; in most records, active means well fitted inhibition curve with a large enough effect; inconclusive means small, poorly fitted or top-dose-only effect; inactive means flat fitted curve, though single readings scatter. No potency is given beside an inconclusive call; the fits are too rough.
# Experiment: qHTS for Inhibitors of human tyrosyl-DNA phosphodiesterase 1 (TDP1): qHTS in cells in presence of CPT; further: nearly all actives have a fitted effect of over 55% in size
# Details: chicken DT40 Tdp1-/-;hTDP1 cells + 20 nM CPT, ATP luminescence, 48 h; activity change, negative = growth inhibition: at 46.2 µM (top of the series) unless noted
# Summary of the method: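 Chicken DT40 Tdp1-/- cells complemented with human TDP1, 400 cells/well, exposed to compounds plus 20 nM camptothecin for at least 48 h at 37 C; viability read as ATP content by CellTiter-Glo luminescence.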
# On the % scale 0 is the no-effect control and ±100 the full control effect; potency means the concentration at half of the fitted maximal effect; tags describe the fitted curve by direction and shape.
SMILES,Potency,"activity change, negative = growth inhibition"
CC(C)(C)CC(C)(C)N=C1Nc2ccccc2NC12C[C@H]1CCC(=O)N3CC[C@@H](C2)[C@@H]13 (stereo not given in full),"inconclusive [inhibitor, single point]",–
O=C(CN1C(=O)NC2(CCCCC2)C1=O)NCCc1ccccc1,–,inactive: -1.51%
CC(C)C(=O)Nc1ccc(-c2nc3ccccc3c(=O)o2)cc1,–,inactive: -6.32%
COc1ccc(NC(=O)Cn2nnc(-c3ccccc3NC(=O)c3cccs3)n2)cc1,"inconclusive [inhibitor, full curve, poor fit]",–
O=C1NC(=S)S/C1=C/c1ccc(N2CCOCC2)o1,"inconclusive [inhibitor, partial curve, poor fit]",–
N#CCc1ccc(C(=O)c2ccccc2F)s1,–,inactive: -13%
CCOc1ccc(S(=O)(=O)N2CCC(N3CCN(Cc4ccc(F)cc4)C(=O)C3=O)CC2)cc1,"inconclusive [inhibitor, single point]",–
COc1ccc(CN2CCOCC2)cc1Br,–,inactive: 0.587%
COc1ccc(N(CC(=O)NCc2cccnc2)S(=O)(=O)c2ccccc2)c(OC)c1,"inconclusive [inhibitor, single point]",–
O=C(c1ccco1)N1CCC2(CC1)CN(c1ccccc1)C2,"inconclusive [inhibitor, single point]",–
CCCCn1c(=N)n(CC(O)c2ccccc2)c2ccccc21 (stereo not given),active: 14.6 µM,–
CCn1c(=O)c2c(cnn2C)c2ccccc21,active: 7.31 µM,–
CCC(=O)Nc1ccc(N2CCOCC2)c(S(=O)(=O)Nc2ccc(OC)cc2)c1,"inconclusive [inhibitor, partial curve, poor fit]",–
CC(C)c1ccc(CC(=O)N2CCC2(C)C(=O)NCCC#N)cc1 (stereo not given),–,inactive: -34%
CCOC(=O)C(CC)Sc1ncnc2sc3c(c12)CCCC3 (stereo not given),"inconclusive [inhibitor, partial curve]",–
Cc1cccc(C)c1NC(=S)Nc1ccccc1C(=O)NCc1ccco1,–,inactive: -0.703%
S=C1NCN(C2CCCCC2)CN1Cc1ccccc1,–,inactive: 3.81%
c1ccc(-c2nc3c4ccccc4ccn3c2CN2CCOCC2)cc1,active: 10.3 µM,–
O=C(CCn1cccn1)NCc1ccc(Cl)cc1,–,inactive: 1.85%
COc1cc(-c2c(-c3ccc4c(c3)OCO4)noc2-c2ccsc2)ccc1F,"inconclusive [inhibitor, single point]",–
CCN1CCN(S(=O)(=O)c2ccc(Cl)c(C(=O)N(CC)Cc3ccccc3)c2)CC1,"inconclusive [inhibitor, single point]",–
Cc1nc(-n2nc(C)c(Cc3ccccc3Cl)c2C)sc1C(=O)N1CCC(C)CC1,–,inactive: -8.1%
Cn1c(SC2C(=O)CC(C)(C)CC2=O)nnc1-c1ccco1,–,inactive: -4.61%
Cc1ccc(N2C(N)=C(C#N)C(c3cccnc3)C3=C2CCCC3=O)cc1 (stereo not given),"inconclusive [inhibitor, single point]",–
COc1ccc(-c2csc(NC(=O)C3CC(=O)N(Cc4ccccc4)C3)n2)cc1OC (stereo not given),"inconclusive [inhibitor, single point]",–

SMILES,Potency,"activity change, negative = growth inhibition"
O=c1[nH]c(/C=C2\C=Nc3ccccc32)c(O)n1Cc1ccccc1F,"inconclusive [inhibitor, single point]",–
Cc1csc(NC(=O)CSC2=NCCS2)n1,"inconclusive [inhibitor, single point]",–
CCN(CC(=O)NCc1ccc(Cl)cc1)C(=O)CSc1ccc(F)cc1,"inconclusive [inhibitor, single point]",–
CCc1ccc(N2C=C(C(=O)OC)C(c3ccccc3F)C(C#N)=C2N)cc1 (stereo not given),"inconclusive [inhibitor, single point]",–
COc1c2ccoc2cc2oc(=O)ccc12,inactive,–
Cc1noc(C)c1NC(=O)N(C)C[C@H]1Oc2ccc(NS(=O)(=O)c3cn(C)cn3)cc2C(=O)N([C@H](C)CO)C[C@@H]1C,–,inactive: -8.26%
CC(=O)CSc1nnc2c3ccccc3nc(C(C)(C)C)n12,–,inactive: -11.3%
CCc1cc(C(=O)Nc2ccc(S(=O)(=O)NC3=NCCCCC3)cc2)sc1C,–,inconclusive: -33.1% [inhibitor]
Cc1ccc2c(c1)N(C(=O)CCC(=O)NCc1cccnc1)CC(C)O2 (stereo not given),–,inactive: -5.62%
CCOC(=O)C(CC)/C(C)=N/NC(=O)c1ccc([N+](=O)[O-])cc1 (stereo not given),"inconclusive [inhibitor, single point]",–
Cc1ccc(Oc2nc3c(C)cccn3c(=O)c2/C=C(\C#N)C(N)=O)cc1,"inconclusive [inhibitor, single point]",–
Cc1cccc(C(=O)NCCNC(=O)c2cccc(C)c2)c1,–,inactive: -17.5%
CCCc1c(-c2cccc(Br)c2)ncn1Cc1cccc(-c2ccccc2)c1,active: 16.4 µM,–
C/C=C/c1ccc(OCCNCc2ccccc2)c(OC)c1,"inconclusive [inhibitor, single point]",–
Cc1[nH]n(-c2ccccc2)c(=O)c1C(C[N+](=O)[O-])c1ccc(Br)cc1 (stereo not given),active: 11.6 µM,–
COc1cc(/C=N/O)ccc1OCc1ccccc1Cl,–,inactive: -26.4%
COc1cccc(-c2cc(C(F)(F)F)n3nc(N)nc3n2)c1,–,inactive: -21.5%
COc1ccc(N2CCN(C(=O)c3ccc4nc(N5CCCCC5)sc4c3)CC2)cc1,"inconclusive [inhibitor, single point]",–
Cc1ccc(C(=O)N(CC(=O)NC2CCCC2)c2ccc(F)cc2)s1,–,inactive: -1.84%
CCOc1cc(NCc2ccccc2)c2ncn(C(C)C)c2c1,"inconclusive [inhibitor, single point]",–
C/C(=N/Nc1nc(-c2ccc(Cl)cc2)cs1)c1cccs1,"inconclusive [inhibitor, single point]",–
Oc1ccc(C[C@@H]2CNC(=S)N2CCc2cc(C(F)(F)F)cc(C(F)(F)F)c2)cc1,"inconclusive [inhibitor, single point]",–
CN(C)C(=O)c1ccc(NC(=O)CN2C(=O)NC3(CCCc4ccccc43)C2=O)cc1 (stereo not given),–,inactive: -19.8%
Cc1cccc(C(=O)Oc2ccc(/C=N/NC(=O)c3ccccc3O)cc2)c1,–,inactive: -4.99%
O=C(CCS(=O)(=O)c1ccccc1)Nc1nc(-c2ccccn2)cs1,active: 18.4 µM,–

SMILES,Potency,"activity change, negative = growth inhibition"
CC(NC(=O)CN(C)S(=O)(=O)c1ccc(Br)s1)c1ccccc1 (stereo not given),–,inactive: -14.8%
CCc1nc2c(OCc3ccc(C(F)(F)F)cc3)cccn2c1N(C)C(=O)c1ccc(OC)cc1,active: 10.3 µM,–
O=C(OCCN(C1=NS(=O)(=O)c2ccccc21)c1ccccc1Cl)c1ccc(Cl)cc1,active: 18.4 µM,–
CCN(CC)CCCNC(=O)c1ccc2c(c1)N(Cc1c(F)cccc1Cl)C(=O)c1ccccc1S2,"inconclusive [inhibitor, single point]",–
O=S(=O)(Nc1ccc2ccccc2n1)c1ccccc1,"inconclusive [inhibitor, partial curve, poor fit]",–
OCc1cn(-c2ccccc2)nc1-c1ccc(-c2nn(-c3ccccc3)cc2CO)cc1,"inconclusive [inhibitor, partial curve, poor fit]",–
CCc1nc2ccc(C(=O)NCc3ccc(OC)cc3)cn2c1N(CC)Cc1cccc(Br)c1,active: 23.1 µM,–
CC(C)CC1C(=O)N(Cc2cn(CCC3OCCCO3)nn2)CCS(=O)(=O)N1Cc1ccc(-c2ccncc2)cc1 (stereo not given),active: 16.4 µM,–
Cc1c(-c2nsc(NC(=O)c3cccs3)n2)nnn1-c1ccc(Cl)cc1,"inconclusive [inhibitor, single point]",–
C/C(Cc1ccccc1)=N\NC(=O)CNC(=O)c1ccc(Br)cc1,"inconclusive [inhibitor, single point]",–
N#Cc1c[nH]n2c(NC3CCCCC3)c(-c3ccccc3F)nc12,"inconclusive [inhibitor, single point]",–
CC1(C)NC(=O)N(CCCOc2ccc(Br)cc2Cl)C1=O,"inconclusive [inhibitor, full curve]",–
COc1ccc(S(=O)(=O)Nc2cc(Sc3ncn[nH]3)c(O)cc2C)cc1,–,inconclusive: -36.1% [inhibitor]
COC(=O)[C@]1(Cc2ccccc2)N[C@H](CN(C)S(=O)(=O)c2ccc(OC(F)(F)F)cc2)[C@@H]2C(=O)N(Cc3ccccc3)C(=O)[C@@H]21,"inconclusive [inhibitor, single point]",–
COc1ccc(-c2nc(-c3ccncc3)no2)cc1OC,"inconclusive [inhibitor, single point]",–
O=C1c2ccccc2CC1(Cc1ccccc1)Cc1ccccc1,"inconclusive [inhibitor, single point]",–
CNC(=S)Nc1ccc(N2CCN(c3ccc(C(F)(F)F)cn3)CC2)nc1,"inconclusive [inhibitor, single point]",–
COC(=O)c1nnn(CC(=O)Nc2cc(F)ccc2F)c1C(=O)OC,–,inactive: 10.1%
CC1CCCC(NC(=O)COC(=O)c2cccs2)C1C (stereo not given),–,inactive: 9.01%
COCC(C)n1c(C)cc(C(=O)Cn2c(=O)oc3ccccc32)c1C (stereo not given),"inconclusive [inhibitor, single point]",–
COc1cccc(C2(O)C(=O)Nc3ccccc32)c1 (stereo not given),–,inactive: -20.6%
COc1cc(CN2CCN(Cc3ccc(C)cc3)C(CCO)C2)cc(OC)c1O (stereo not given),active: 20.6 µM,–
Cc1cc(C)nc(N2CCC(C(=O)NC3CC3)CC2)n1,–,inactive: 5.14%
O=C(CSc1nc2ccc(Cl)cc2[nH]1)NC1CCCc2ccccc21 (stereo not given),"inconclusive [inhibitor, single point]",–
Cn1nccc1C(=O)N1CCC(Cc2ccccc2)CC1,"inconclusive [inhibitor, single point]",–
